According to paper PMC2584773:
These are yes or no findings as the source states them, for the method shown. Some results given as binding are weak or reduced against the parent protein; the word gives no strength.

Amino acid sequences for entries named in this document (tags omitted). A change or cut given only in a name is not applied to a line headed by its entry. Chains listed by the source or under a name are the forms on record and can include a tag or linker. Residues count along the entry.
homeo-Prospero domain (HDPD) of human Prox1, amino acids 547-737, fused to the Gal4 DNA binding domain (Q92786, residues 547-737): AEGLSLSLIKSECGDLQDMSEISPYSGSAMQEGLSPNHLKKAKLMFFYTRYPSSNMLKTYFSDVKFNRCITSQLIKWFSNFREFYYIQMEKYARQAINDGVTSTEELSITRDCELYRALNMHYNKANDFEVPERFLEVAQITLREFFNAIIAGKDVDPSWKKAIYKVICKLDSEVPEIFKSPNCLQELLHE
homeodomain (HD) of human Prox1, amino acids 547-642, fused to the Gal4 DNA binding domain (Q92786, residues 547-642): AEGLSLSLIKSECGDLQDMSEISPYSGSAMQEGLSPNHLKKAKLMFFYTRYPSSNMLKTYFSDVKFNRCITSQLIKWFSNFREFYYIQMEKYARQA
Prospero domain (PD) of human Prox1, amino acids 638-737, fused to the Gal4 DNA binding domain (Q92786, residues 638-737): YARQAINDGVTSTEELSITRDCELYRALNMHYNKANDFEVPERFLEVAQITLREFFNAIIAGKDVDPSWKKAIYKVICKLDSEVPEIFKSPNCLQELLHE
Prox1 homeo-Prospero domain PIP box mutant LFF (Q92786, form named): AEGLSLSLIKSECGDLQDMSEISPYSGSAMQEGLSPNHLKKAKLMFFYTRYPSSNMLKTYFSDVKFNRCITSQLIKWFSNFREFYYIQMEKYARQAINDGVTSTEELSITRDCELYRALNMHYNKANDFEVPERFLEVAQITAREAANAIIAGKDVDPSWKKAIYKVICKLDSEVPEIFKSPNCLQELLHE
UniProt P17918: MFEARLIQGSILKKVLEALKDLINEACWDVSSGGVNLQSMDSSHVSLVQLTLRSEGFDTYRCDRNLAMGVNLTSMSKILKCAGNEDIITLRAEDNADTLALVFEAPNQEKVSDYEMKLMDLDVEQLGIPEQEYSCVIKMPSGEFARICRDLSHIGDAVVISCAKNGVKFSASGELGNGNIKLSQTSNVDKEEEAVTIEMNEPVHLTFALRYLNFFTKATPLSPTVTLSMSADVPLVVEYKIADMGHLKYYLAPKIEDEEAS

What was measured:
[1] = target: homeo-Prospero domain (HDPD) of human Prox1, amino acids 547-737, fused to the Gal4 DNA binding domain (human) (UniProt Q92786); assay: two-hybrid; relative strength of the interaction by beta-galactosidase assay with ONPG as substrate on QDO liquid cultures of the mated yeast
[2] = target: homeo-Prospero domain (HDPD) of human Prox1, amino acids 547-737, fused to the Gal4 DNA binding domain (human) (UniProt Q92786); assay: two-hybrid; mating of AH109 (Gal4 DNA-binding domain-Prox1 bait) with Y187 (Gal4 activation domain-PCNA prey); colonies from DO plates restreaked on high stringency quadruple drop out (QDO) plates with X-alpha-Gal; growth and blue colour
[3] = target: Prox1 homeo-Prospero domain PIP box mutant LFF (human) (UniProt Q92786); assay: as above
[4] = target: Prospero domain (PD) of human Prox1, amino acids 638-737, fused to the Gal4 DNA binding domain (human) (UniProt Q92786); assay: as above
[5] = target: homeodomain (HD) of human Prox1, amino acids 547-642, fused to the Gal4 DNA binding domain (human) (UniProt Q92786); assay: as above
[6] = target: homeo-Prospero domain (HDPD) of human Prox1, amino acids 547-737, fused to the Gal4 DNA binding domain (human) (UniProt Q92786); assay: two-hybrid; screen of an 11 dpc mouse embryo cDNA library (pACT2, Y187) with pGBKT7-Prox1 HDPD in AH109; SD/-Leu/-His/-Ade/-Trp with X-alpha-Gal, Matchmaker 3 high stringency protocol

With “PCNA C+ fragment (amino acids 115-261), carboxyl-terminal domain 2 plus the IDCL, fused to the Gal4 activation domain (from UniProt P17918 115-261) (domain or fragment)” the binding [1] was “binds”, the binding [2] was “binds” and the binding [3] was “no binding”.
For “PCNA C- fragment (amino acids 135-261), lacking the IDCL, fused to the Gal4 activation domain (from UniProt P17918 135-261) (domain or fragment)”, the binding [1] was “binds” and the binding [2] was “binds”.
“PCNA N+ fragment (amino acids 1-135), amino-terminal domain one plus the IDCL, fused to the Gal4 activation domain (from UniProt P17918 1-135) (domain or fragment)” was tested, and the binding [2] was “binds”.
With “carboxyl-terminus of PCNA (amino acids 167-261), original clone isolated from the library, fused to the Gal4 activation domain (from UniProt P17918 167-261) (domain or fragment)” the binding [1] was “binds”, the binding [4] was “no binding” and the binding [2] was “binds”. The binding [5] was “no binding”, the binding [3] was “no binding” and the binding [6] was “binds”.
